# ± gives the standard deviation of the averaged measurements. In all, about 4,100 sequences were measured (“arbitrary fluorescence units”: median about 780, highest 2% from about 22,000 on). The list shows a part of the results.
# Target: T1, ETS1 (UniProt P14921)
# T1 sequence: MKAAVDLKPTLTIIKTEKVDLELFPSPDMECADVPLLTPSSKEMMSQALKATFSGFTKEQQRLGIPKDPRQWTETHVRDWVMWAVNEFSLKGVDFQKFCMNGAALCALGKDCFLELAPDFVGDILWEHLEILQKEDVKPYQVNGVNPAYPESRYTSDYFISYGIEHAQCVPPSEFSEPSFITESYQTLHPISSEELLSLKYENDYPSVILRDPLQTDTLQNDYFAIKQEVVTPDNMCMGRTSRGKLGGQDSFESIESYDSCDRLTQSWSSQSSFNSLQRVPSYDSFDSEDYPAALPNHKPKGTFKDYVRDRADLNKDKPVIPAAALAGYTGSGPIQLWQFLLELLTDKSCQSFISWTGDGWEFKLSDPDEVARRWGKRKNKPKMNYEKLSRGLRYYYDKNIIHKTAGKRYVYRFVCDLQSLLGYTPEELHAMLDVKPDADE
# Test: ETS1 binding intensity (PBM fluorescence), ETS1 alone (arbitrary fluorescence units); higher = stronger binding
# Conditions: ETS1 concentration 1 nM; RUNX1 concentration 0 nM
# In short: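 Double-stranded Agilent 4 × 180k arrays held 36-bp genomic probes whose RUNX1 partner site was mutated, and these were incubated with 1 nM full-length recombinant human ETS1 in the absence of RUNX1 under standard PBM protocols. Bound protein was labelled with anti-ETS1 antibody (Cell Signaling Technology 14069) plus an Alexa488-conjugated secondary and read on a GenePix 4400A, with four spots printed per sequence. Binding level is reported as raw spot fluorescence intensity summarised over replicate spots.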
row,Sequence,ETS1 binding intensity
1,CGTCCTGTCTCTGGCCTAGAAGCTTCCTGCCCCAGC,1080
2,ATGGCGCCGACTGCAGCCACTTCCGTGATCCGCAGG,1780
3,CCTCGGTTCGGAAACGGCGAAAGCAAACAGCAAGGA,574
4,TAAATAGGAAGTCAGAGTTTACTGCCGAACCTACAG,1170
5,AACCAGTTCATCCTGGGAGCTGCTGCTGGTTCTTCA,427
6,AGGCCTACGGCGGCAGAAGGAAAGACAAGGAAATAC,410
7,CGCCGGACGGAACGCCTGGCACAGCCGCCGCTCGCT,324
8,AGTTGCATACGCGGGATTGGGCAGGAAATGGCAGGG,1190
9,AGCCGTGCTCAGCAGCAGCACGACTTCCGCCTCCGC,2660
10,AGTGAGGTAGAGAGATATTTTTTGTATCCGTGTTGG,454
11,GTGTGGAAGGAGGAAGCGAGAATGTGATTACTTAGG,732
12,CATCTGTTGTCTCCTTGAAGTCACATCCCACAGGAG,438
13,AAAGCCATCCCGCGATTGTCAATGGCAGGAAGCCAC,478
14,CCCCGCCTCTTCCGCTTCTGTTGTCTGATCTGCCTG,5640
15,GGGACTGCAGTCCCGGGGAGCGCACCGGAAGTTCTC,4610
16,GAAGCGGAAGTCGCTGAGGGGTGGTGAAGCGGCTGG,8260
17,GTCCTCCAGGAAGCCCGCGCTAGCCACCGTGCCTTT,550
18,CCTCTGCCAAAAGCACCATCCACTTCCCCACCCAAC,553
19,GGAGGAAGTGACACCCACCCACTGCCCCCGTAAGGT,1160
20,CAAACAGGTTCCGGCCGGACTACAGCGCCTACAATG,3740
21,CCGGGACCGTTCCGCTTCACCTCCCACCCTCAGGTT,422
22,CGTTCAGGGTTCCGCCTGAGCCTGCAGCACAGGACG,473
23,GCATGTTTTCCTGTGGAAGCGGCCTACAAAACCTGC,1950
24,TTGACTGAGGGCCGAAGCCGGGCGGAAGCAGACAGG,526
25,TCGCTCTGATAACGGCATCCCGGTTTCCGGGACGAC,2200

row,Sequence,ETS1 binding intensity
1,GGTGTCTACGGCAGCGCCTCAGAGTGGTTCCGGTCG,508
2,CAAGGTGCTGTGCTCACATAAGCAGGAAGAGCCCCA,476
3,CAAGCCACTTCCTTTCTTGCTCCCAGAACCTGTGTT,7990
4,GGAGGAGTGCTTTCTGAGAGAAGGAAGCACCTGCCC,390
5,CTAAGGCTGAGGGGATGGGATGACAGGAAGAGTATC,528
6,CCCGGACCCTCAGCTGCGCCTACAGACACTTCCTAG,419
7,GGAGCGACGGAAGCACCTGAAGCGCTCTTTCCCCGA,752
8,GCGCAAAGCCGGAAGGAGGGGTTTGGGGCTGGGGAG,4130
9,GACTTGGGGGAAGTGGCTTGGTTTGCGTGGATTCTC,726
10,TCGGAACGGAAGGGAGGCACGAATCCGCGAGTGGAG,799
11,CCTGTCGTAATCCTTACCGTGGCGAGTTCCGCGCTC,359
12,CCCGGCAGCGGATAGCGCCTGAGGGTCGCAGCAAAT,336
13,TGATCAGGAAGGAGAAGCGCAGAGGTGGACCCTCAA,407
14,CTCTTCCGGCCGCGAGGAGCGCGACAGCGGCCCCTG,14400
15,CGTCGCTGGGGTCCCTGCCGCCGGAACCATTAAGGA,318
16,ATAGACGACCCCAGCCTGTGCACCCTCAGGAAGTAA,324
17,CTGGAGAGGATGTGGCCCCAGTGAGGTTCTGTAACT,1170
18,AGCCCTCTGCAACTTCCCGGCCCCAGAGCCCCACCC,1000
19,GGCCGGAAAGGGTCTTGAGAGGAGGTGCTTGCCTTA,801
20,GGAGCGCGCTGGGGACGTTTAAAGGAAATTTACAAT,363
21,GGGCAGGTGCGGATGCCGAGGAGAGTGGACACCTCG,537
22,GTTGTGCAAGCTACAGATGATATGGGGAAGTAGTTT,405
23,AGCGTATGAACGACAGGAACTTCCGGGTTTTAAAGA,6820
24,TCGGCTCACGGTGGGAGCGCCGGAAGCCCGCCCCAC,964
25,CGGTGCCGTACGCACACCACGGATGCCACTCAGCAG,387

row,Sequence,ETS1 binding intensity
1,GGTGGCAACATCCTGGGGAGGGGAACCTACAGGGGA,4130
2,GGGCGGAAGTGCGTCACTATGTCCGACCAGCAGTGC,4300
3,GGCACCGGAAGTAGAGCTGCCCCTAGTTTCGGCAGT,22100
4,GTCAGGAAACACATAGTTGTGTTTAAGCTCAGGAAA,729
5,CTGTTGTCATTTGTCATAGCAGCCACAGGAAACTAG,474
6,CAGTCTCCTTCCGCGTCACCTCTGTGATCGCTGTGC,895
7,GATGGGCTGGGGATGTGGCCTGTTTGCCGCTGGCGA,361
8,GCGATCGGAGCGGAAGTGGAGCTACCGGCACCGCCG,9210
9,CGACGCGCGGAAGGAGTTCGCGCGACGACCTCGGGG,476
10,GAGAAACGTCAGGCATGGCCGGGCCACCAGGAAAAC,347
11,CGCCGAGGTAGCCGCCTCACTTCCCCTCCCGACCAC,569
12,GATGTCCGTGGCCGCCTCCGGAAGAATTCTCTGCGA,663
13,GGAGTGAGGAGGAAGCGGAGGCGAGACGGCGCTCAA,664
14,GGTTGGGTGAGGTCCGTGAGGTTCCGGCCCAGCCCA,773
15,AAGCAGTCAGGATGGCCGAGCGCTCTAAGGCGCTGC,337
16,CGAAAAACGTCAGGGGAGCCATGGGGGCAGGAAGGG,485
17,AAGTCAAAATCGCAAACGCTCAGGAAAAAAGACTCT,413
18,GCACAAAGCTACAAAACCCATTCCTGCCGGATATGA,684
19,CTTGTAGTCAGGTTGTTGGGCAGGATGTTTCTCATG,475
20,GTGGCGCGCTGGGGCGCGGACCCGGAACTGCCAAGT,363
21,CCCGCCGCCACTAGGAGACGCCCGAGGACTTCCCTC,364
22,CGCCGCGGCGGATGGAGGTGCCCAGGGCCACGGACC,433
23,GCCTGGCCGAAGCTGCTGCTGAGCGGAAGTCTCTGA,868
24,GTTATCCACCCTCTCTATGCTTCAGTTTCCTCATGT,634 ± 39
25,GCTGGGGCCAAGTGCAGGAACCGGAGGAAGGAACTG,342

row,Sequence,ETS1 binding intensity
1,GACTCACACGCTTCGGCGACAGGAAAGCCCGCGCCC,530
2,TGGGCACGGGAGGAAGAGGCTGGGTGGAAAACAGGA,433
3,CACTGATTAAGAGGAAGTGTGTGTGATTATTACCGT,1270
4,GCTGCTCACAGCGCTCACCCTCCACATCCCGGCCGC,345
5,CTGAGGTGTCGGAGGCTGTGACGTCGGGAAGTAAGT,373
6,ACCTCATCCTGCTGTTCTTGTGTGTCGTTGAGCAGT,2840
7,CCTGGGGTACGCCTGGGTCACGCCTCTTCCGCTAAG,504
8,GGAGCTACCTCAGGCAGACTAACTTCCTGCTAAGCA,3290
9,ACCCCACCAGCCGCCTCCACTTCCGGCACCCACGAG,10400
10,ACCTGGTCTTGTAGCCCCCACCCAGGAAATGACTCA,567
11,ACAATAACAGGAAGTGGTGGGGACTGGGGTGACCTG,8620
12,CCAGGAGCGTTTCGGCCGCGGCTTCCTCCTACGGCG,464
13,GGGGCCCCGGATGCACTGAGCGGATTCGGCGCGGCT,1160
14,AGCCAACAGGAAGCTGCAGAGACTAAACTACAGCAA,3610
15,TGTTGGTGGATAAAAAGCAATTTGGGACTTCCTCTT,546
16,CCATTCTTCCGGTGGAGATGGCGGCGGCCGTGGCGG,17800
17,CTCCTACGGCGACACGCCTAGCAGACGGCGGAAGGC,371
18,CTTGCGCCGTCCGGGTACCTGAGGGCGGGGTGTACC,477
19,GCGGCGAACCGGACGCCCCAACAAGCCGCCCCCCAC,866
20,TGACTCGAGGTCTTGTTATCAGTTTCCGGGATGACA,1370
21,AAGGAACTGTCGTAAGAGAAGGAAGTGGTAGCCACT,456
22,GACGCAATCCCTCAGCCTTCTGGGAAACGTAGTTTA,450
23,TTGGCCTCGCCGGAACCCCTTGCACCGTGGACACAG,315
24,TATCATTTTTACGACAGAGGTACAGGAAATTGTTTC,733
25,AGCGGCGCCTTCCGCAGAGGGACAGCGCCTTTCTGC,1010

row,Sequence,ETS1 binding intensity
1,AGAAAGCAGGAAAGTGACGTCATTTTGTGACTTCAG,492
2,TTGGGGCTAATGGCTCAGCAGGATTAGGAAGCAACT,406
3,AGCTCCCAGAGCACAGAGGTTTTCCTGCATGGAGGA,345
4,CTAGCCAGGAAGATAAAGAAGAATCCACCAAAGAGA,414
5,ACAAAGAAACCTACATCCTAAGCCACCGAATACAGC,592
6,TCGGCGGATATGAAAAAAAGTCCGTGCTCACGTGCA,1250
7,CTTATCTTCTTCCTGTGAGCTGTGTGTGCGTGGCTC,3200
8,CCGGGACCTCGGCTTGGGCTCACGGCCACTTCCGAC,393
9,TCGTATTTGGGGTCAGCCTCTTCCGTAATGTGCTTG,441
10,GACCCCTACGCGGAACTCTCTCGCGGCAATTCGAAG,390
11,TGCACACATGAGGAAGGGGTAAGTGGATTTCCCTAC,406
12,GTGACAGCCGCCTCCCCAGCCACATCCTGTTTGACT,4030
13,GTGACGGATATCCACCGGGCCCTGTAGTTTCCAACA,935
14,GCCACATATTTCCTGTGACAACCCTGAGGTGTGGCT,7410
15,CTCTTTTATACCCCAAGGAGGAAAAGGAAATGAACC,641
16,CGAACGCCGGACGTTCTGGGCACGTGATCGCCACCC,803
17,CCTCCAGGAAGCGATAAGTGACTCTGGTGGAGAGAG,1020
18,GGCTGAAGGTTTCCGTGCTTGGAAATCGCGCCTCCG,1010
19,GCCGCGCGGAAGCCTCCGCCCTGTAGTTTTGGAGCC,383
20,AGCGAGCGGCGGCTGTGCCAGGCGTTCCGTCCGGCG,287
21,AGGCGGCAGGAAATGACCCCATCGCGCAGCCTGGGC,5990
22,CTCTTTCACAAAGGAAATGGAAACCCCAAAGAGGAC,1290
23,TGCAGCCTATTTCCTCTAACCCGTAGATCCACTATG,4660
24,GCTTCAGGCTTCCGGGGCGCACACTGCCGTAAAGCT,5230
25,TCCCAGGAACGACAGTGGGACAGGAAGTGACAGCCA,3790

# Source: the supplement of paper PMC10681739
